# Data as given in the supplement of paper PMC10338343.
# ± gives the standard deviation. In all, about 5,500 sequences were measured (“pre-steady-state target cleavage rate”: median about 0.1, highest 2% from about 0.64 on). Only a part is listed here, and it is no random draw.
# Test system: MIWI (PIWIL1) piRISC loaded with piRNA #2 (30 nt)
# Assay: pre-steady-state target cleavage rate (min^-1); MIWI and MILI are mouse PIWI proteins and EfPiwi is from a freshwater sponge; tags in brackets are library labels; higher = faster piRNA-guided slicing of the target
# Details: guide: piRNA #2 5'p-UUAGGUAACCCAGUAGAUCCAGAGGAAUUC; auxiliary factor: 500 nM mouse GTSF1
# Method in brief: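 Cleave-'n-Seq used a transcribed, DNA-blocked target RNA library at 0.1 nM and active affinity-purified piRISC with one synthetic guide at 1 nM, with or without 500 nM GTSF1 partner protein, in HEPES–potassium acetate buffer at 33 °C for 0–8 or 0–960 min. Uncleaved targets were sequenced and normalised to depth and to weakly complementary targets, and three trials were pooled with k3 capped at 0.0001 min^-1. The pre-steady-state cleavage rate was estimated by a burst-and-steady-state fit.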
row,Sequence,pre-steady-state target cleavage rate
1,CUUAAGCUCUGGAUCUACUGCGUUACCUUA,0.167 ± 0.029
2,CUUUUCCUCUGGAUCUACUGGGUUACCUAG [g2:g27:cont:t1G],0.4 ± 0.064
3,CUUAAGCUCUGGAUCUACUGGGUAACCAAA,0.0234 ± 0.0094
4,CAAUUCCUCAGGAUCUACUGGCUUACCUAA,0.104 ± 0.017
5,CAAUUGCUCUGGAUCUACUGGGUUUCCUAA,0.227 ± 0.04
6,CUUAAGGAGACCAUCUACUGGGUUACCUAAA,0.00402 ± 0.0032
7,CUAUUCCUCUGGAACUACUGGGUUACCAAA,0.212 ± 0.044
8,CUUUUCCUCUGCAUCUACUGGGUUACCUAA,0.404 ± 0.036
9,CUUAAGGUCUGGAUCUACAGGGUAACCUAA,0.0779 ± 0.015
10,CUAUUCCUCUGGAUGUACUGGCUUACCUAA,0.119 ± 0.025
11,CUUAAGGAGAGGAUCUACUGGGUUUACCUAA,0.00683 ± 0.0028
12,GAAUUCCUCUGGAUCAACUGCGUUACCUAA,0.439 ± 0.053
13,CUAUACCUCUGGAUCUACUGCGUUACCUAA,0.732 ± 0.066
14,CUUAAGGUCUGGAUCUACUGGGUUUCCAAA,0.015 ± 0.0057
15,CAAUUCCUCUGGAUCUACUGGGUUACUAA,0.31 ± 0.088
16,CUAUUGCUCUCGAUCUACUGGGUUACCUAA,0.386 ± 0.038
17,CUUUUCGUCUGGUUCUACUGGGUUACCUAA,0.406 ± 0.047
18,CUUAACCUCUGGUUGUACUGGGUUACCUAA,0.493 ± 0.034
19,CAAUACCUCUGGAUCUACUGGCUUACCUAA,0.0941 ± 0.017
20,CUUAACCACUGGAUCUACUGGCUUACCUAA,0.0464 ± 0.011
21,CUUAACCUCUGGAUCUGCUGGGUUACCUAA,0.159 ± 0.018
22,CUUUUCCUCUGGAUGUUCUGGGUUACCUAA,0.305 ± 0.031
23,CUAUUCCUCUGGAUCUACUGGCUUACCAAA,0.0709 ± 0.022

row,Sequence,pre-steady-state target cleavage rate
1,CUUUUCCUCUCGGAUCUACUGGGUUACCUAA,0.377 ± 0.046
2,CUUAACCACUGGAUCUACUGGGUAACCUAA,0.107 ± 0.015
3,CUUUUCCUGUCGAUCUACUGGGUUACCUAA,0.444 ± 0.033
4,CAAUUCCUCUGGAUCUACUGCGUAACCUAA,0.179 ± 0.05
5,CUUAAGGAGUGGAUCGACUGGGUUACCUAA,0.0173 ± 0.0051
6,CUUAAGGACACCAUCUACUGGGUUACCUAA,0.00335 ± 0.0033
7,CUUAAGCUCAGGAUCUACUGGGUUUCCUAA,0.0918 ± 0.015
8,CUUAAGGAGAGGAUCUACUGGAUUACCUAA,0.0161 ± 0.0083
9,CUUAAGCUCUGGAUCUACUGGGUAAGCUAA,0.0314 ± 0.0056
10,CUAUUCCUCUGGAUCUACUCGGUUACCAAA,0.0838 ± 0.028
11,CUUAAGCUCUCGAUCUACUGCGUUACCUAA,0.508 ± 0.049
12,CUUAACCUCUGGACUACUGGGUUACCUAA,0.12 ± 0.013
13,CUUAACCUCUGGAACUACUGGGUUACCUAA,0.37 ± 0.035
14,GAAUUCCUCUGGAUCUACUGGGAUACCUAA,0.164 ± 0.027
15,CUUAAGGAGUGGAUCUACACGGUUACCUAA,0.00547 ± 0.0032
16,CUAUUCCUGUGGAUCAACUGGGUUACCUAA,0.377 ± 0.038
17,CUUAAGCUCUCCAUCUACUGGGUUACCUAA,0.266 ± 0.031
18,CUUAUCCUCAGGUUCUACUGGGUUACCUAA,0.389 ± 0.043
19,CUUAAGGAGACCUUUCUACUGGGUUACCUAA,0.00338 ± 0.003
20,CUAUUCCUCUGGUUCUAGUGGGUUACCUAA,0.24 ± 0.024
21,CUUUUCCUCUGCAUCUUCUGGGUUACCUAA,0.258 ± 0.025
22,CUUUUCCUCAGGAUCAACUGGGUUACCUAA,0.343 ± 0.036
23,CUUAAGCUCUGGAUUACUGGGUUACCUAA,0.128 ± 0.014
